# PMC4336329 (PLoS ONE, 2015)
# Hit rate of the full screen: of about 310,000 compounds, about 2,200 (0.71%) showed an effect of 50% or more. Effects have a minus sign here. The list shows a part of the results.
# Target: human ether-à-go-go-related gene (hERG) potassium channel (human, UniProt Q12809)
# Assay: primary screen, population patch clamp on CHO cells stably expressing hERG
# Chain of human ether-à-go-go-related gene (hERG) potassium channel (Q12809 whole entry, looked up): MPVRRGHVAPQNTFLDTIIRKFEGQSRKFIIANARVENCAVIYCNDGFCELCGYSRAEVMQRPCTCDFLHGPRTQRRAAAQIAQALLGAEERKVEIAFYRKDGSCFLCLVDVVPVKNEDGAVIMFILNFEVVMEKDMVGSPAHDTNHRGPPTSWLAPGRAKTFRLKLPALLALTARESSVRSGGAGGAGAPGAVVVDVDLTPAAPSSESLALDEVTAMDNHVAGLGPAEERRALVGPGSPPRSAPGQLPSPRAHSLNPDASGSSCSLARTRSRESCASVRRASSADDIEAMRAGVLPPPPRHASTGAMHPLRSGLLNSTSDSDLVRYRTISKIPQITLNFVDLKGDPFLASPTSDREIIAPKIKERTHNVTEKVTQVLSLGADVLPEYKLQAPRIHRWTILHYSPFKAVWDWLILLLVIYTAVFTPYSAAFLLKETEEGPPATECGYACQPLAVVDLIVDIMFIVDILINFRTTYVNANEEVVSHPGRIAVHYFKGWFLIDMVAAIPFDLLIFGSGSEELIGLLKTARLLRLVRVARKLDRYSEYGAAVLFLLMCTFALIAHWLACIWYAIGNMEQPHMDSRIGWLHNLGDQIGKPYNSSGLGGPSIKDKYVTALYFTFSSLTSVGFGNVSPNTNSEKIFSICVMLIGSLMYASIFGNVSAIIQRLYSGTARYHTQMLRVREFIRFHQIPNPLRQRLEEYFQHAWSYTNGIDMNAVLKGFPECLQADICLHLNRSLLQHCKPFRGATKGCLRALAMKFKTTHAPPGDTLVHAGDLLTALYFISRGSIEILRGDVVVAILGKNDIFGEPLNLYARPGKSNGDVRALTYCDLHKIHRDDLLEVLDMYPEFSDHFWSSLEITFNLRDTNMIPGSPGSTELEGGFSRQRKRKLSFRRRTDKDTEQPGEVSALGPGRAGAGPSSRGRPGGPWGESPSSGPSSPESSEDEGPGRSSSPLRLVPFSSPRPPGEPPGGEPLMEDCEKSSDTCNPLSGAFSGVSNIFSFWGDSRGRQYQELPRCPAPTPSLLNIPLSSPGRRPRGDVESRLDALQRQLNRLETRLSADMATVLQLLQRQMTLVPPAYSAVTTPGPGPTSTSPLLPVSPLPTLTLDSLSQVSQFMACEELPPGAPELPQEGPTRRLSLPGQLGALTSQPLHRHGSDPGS
row,Structure (SMILES),"hERG current change (%, negative = inhibition) at 1uM"
1,O=C(O)c1cc(O)c2c(c1)[C@@H]([C@H]1c3cc(C(=O)O)cc(O)c3C(=O)c3c(O[C@@H]4O[C@H](CO)[C@@H](O)[C@H](O)[C@H]4O)cccc31)c1cccc(OC3O[C@H](CO)[C@@H](O)[C@H](O)[C@H]3O)c1C2=O (some centres unmarked),6.01%
2,CCOc1ccccc1NC1=C(Cl)C(=O)N(Cc2ccccc2)C1=O,-4.05%
3,O=C(NCCc1cccs1)C1CC(c2c(Cl)cccc2Cl)=NO1 (centres unmarked),10.6%
4,CCN(CC)S(=O)(=O)c1cccc(C(=O)N[C@H](C(=O)NNC(=O)c2ccccc2)C(C)C)c1,11.1%
5,COc1ccccc1Nc1nc(N)nc(-c2oc3ccccc3c2C)n1,6.09%
6,CCCNC(=O)COC(=O)c1c2c(nc3ccccc13)CCC2,13.7%
7,CC1CN(C(=O)c2c(Br)cnn2C)CC(C)O1 (centres unmarked),4.32%
8,Cc1ccc(NC(=O)CCN2CCc3ccccc3C2)cc1.Cl,-20%
9,O=C1CC(C(=O)O)S/C(=N\N=C\c2ccc(Br)cc2)N1 (centres unmarked),6.37%
10,Cn1c(C(=O)O)ccc1S(=O)(=O)N1CCCCCC1,10.3%
11,CCOC(=O)c1cc(NC(=O)c2ccc(Cl)cc2)c(=O)oc1-c1ccccc1,-9.79%
12,Cc1ccc(C)c(-n2c(-c3csc(C)c3)n[nH]c2=S)c1,11.2%
13,N#C/C(=N\Nc1ccc(Cl)c(Cl)c1)C(=O)C1CC1,14.7%
14,CCC(C)N(CCNC(=O)CC1Oc2ccc(C)cc2NC1=O)C1CCCCC1 (centres unmarked),-58.1%
15,CCCCC(=O)Nc1cc(C)c2c(=O)oc3ccccc3c2n1,12.2%
16,C/C(=N/N=C1/NC(=O)CC(C(=O)Nc2ccccc2)S1)c1cccs1 (centres unmarked),7.65%
17,Cc1ccc(NC2CCCN(C(=O)CSc3ccccn3)C2)cc1C (centres unmarked),12.5%
18,COc1cc(C(=O)O)ccc1OCC(=O)N1CCOCC1,2.74%
19,N#Cc1c(N)n(CCNC(=O)c2cccs2)c2nc3ccccc3nc12,10.7%
20,CCC(=O)Nc1c(C)nn(C(=O)CC)c1C,-5.78%
21,Cn1cccc1C(=O)OCC(=O)Nc1cccc(S(=O)(=O)N2CCOCC2)c1,-3.88%
22,N#Cc1ccsc1NC(=O)C1CCN(S(=O)(=O)c2cccs2)CC1,11.2%
23,CCOc1ccccc1NC(=O)C1CCN(c2nc(-c3ccc(OC)cc3)no2)CC1,18.3%
